PubChem BioAssay AID1458 (National Center for Advancing Translational Sciences (NCATS), 2008)
Screen size: about 210,000 compounds; about 5,900 (2.8%) were called active. Inconclusive means that the source gave no clear call. Such entries were picked first, then a sample of the others. The call rests on the fitted dose curve; in most records, active means well fitted activation curve with a large enough effect; inconclusive means small, poorly fitted or top-dose-only effect; inactive means no such curve, though single readings can be large or run the other way. Potencies of inconclusive entries are doubtful fits and often do not repeat.
Potency means the concentration at half of the fitted maximal effect; tags describe the fitted curve by direction and shape.

Test: qHTS Assay for Enhancers of SMN2 Splice Variant Expression; further: nearly all actives have a fitted effect of over 55% in size; on activity change, positive = activation: % of control where 0% means no effect
Conditions: HEK293 SMN2-luciferase splicing reporter, luminescence, 30-36 h; activity change, positive = activation: at 46.1 µM (top of the series)
In short: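 HEK293 cells carry an SMN2 minigene-luciferase reporter in which exon 7 inclusion puts luciferase in frame. Cells were seeded at 2000 cells/well, attached for 10-12 hours, then exposed to compounds for 30-36 hours at 37C before ONE-Glo luminescence.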
With `CSc1nnc2c(n1)OC(c1ccccn1)N(C(C)=O)c1ccccc1-2` (stereo not given) the “activity change, positive = activation” value was inactive: -0.117%.
For `O=C1C(C=NCCCN2CCCC2=O)=C(O)c2ccccc21`, the Potency was inconclusive: 35.5 µM [activator, single point].
With `Fc1ccccc1CSc1nnc(-c2cccnc2)o1` the Potency was inconclusive: 17.8 µM [activator, single point].
With `Cc1ccc(-c2nnn(CC(=O)N3CCCCC3)n2)o1` the “activity change, positive = activation” value was inactive: -2.1%.
For `Cc1cc2nc(N3C(=O)CNC3=S)sc2cc1C`, the Potency was active: 3.98 µM.
In the case of `COc1ccc(-c2nnc(SC(C)C(=O)Nc3ccc4c(c3)OCCO4)o2)cc1` (stereo not given), the Potency is reported as active: 17.8 µM.
For `O=C(c1cnn(-c2ccccc2)c1)c1ccccc1O`, the activity change, positive = activation was inconclusive: 245% [activator].
For `Clc1ccccc1OCc1nnc(-c2ccccc2Br)o1`, the Potency was inconclusive: 22.4 µM [activator, single point].
For `COc1cccc2c(N/N=C/c3ccco3)cc(C)nc12`, the Potency was inconclusive: 17.8 µM [activator, partial curve, poor fit].
In the case of `CC(=O)c1ccc(OCC(O)CN2CCC(C)CC2)cc1` (stereo not given), the Potency is reported as inconclusive: 12.6 µM [activator, partial curve].
For `COc1ccccc1-c1nnc(NC(C)=O)s1`, the Potency was active: 25.1 µM.
In the case of `CCOc1cc(-c2nc(-c3ccccc3OC)no2)cc(OCC)c1OCC`, the Potency is reported as inconclusive: 0.794 µM [activator, full curve, poor fit].
With `CCOc1ccc(NC(=S)N2CCN(CCN3C(=O)c4cccc5cccc(c45)C3=O)CC2)cc1` the Potency was inconclusive: 5.01 µM [activator, partial curve].
In the case of `CC(/C=C/c1ccc2c(c1)OCO2)=N/NC(=O)c1cccnc1`, the Potency is reported as inconclusive: 35.5 µM [activator, single point].
In the case of `COc1ccc(-c2nc(C#N)c(NCCCN3CCOCC3)o2)cc1`, the “activity change, positive = activation” value is reported as inactive: -21%.
With `CCOc1ccnc(OCC)c1Br` the Potency was inconclusive: 5.01 µM [activator, full curve, poor fit].
For `COC(=O)C1=C(CSCc2ccco2)NC(=O)NC1c1cc(C)ccc1C` (stereo not given), the Potency was inconclusive: 2 µM [activator, full curve, poor fit].
With `Cc1nn(CC(=O)N(C)Cc2ccc(F)cc2)c(C)c1[N+](=O)[O-]` the Potency was inconclusive: 0.0178 µM [activator, full curve, poor fit].
With `Cn1c(CNc2ccccn2)c(C#N)c2ccccc21` the Potency was inconclusive: 5.62 µM [activator, partial curve].
For `CC(=O)OC1CC(C)N(C(=O)c2ccccc2)c2ccc(C)cc21` (stereo not given), the Potency was inconclusive: 6.31 µM [activator, full curve, poor fit].
